The other results are listed elsewhere or left out.
Columns and labels:
Experiment in all cases: glycan array binding signal (z-score within array); higher = stronger binding
Conditions in all cases: glycan notation: IUPAC condensed, linker removed
[1] = biological target: Gal(b1-3)GalNAc(a1-3)[Fuc(a1-2)]Gal(b1-4)GlcNAc
Summary of the method: (§1)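 From the Consortium for Functional Glycomics database, 3228 arrays were curated, keeping only those whose protein sequence was available. Binding is given as a within-array Z-score averaged across arrays sharing a protein sequence and across linkers. Negative Z-scores can be read as non-binding.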

[2] = biological target: Gal(b1-3)GalNAc(b1-3)Gal(a1-4)Gal(b1-4)Glc
Summary of the method: as §1

[3] = biological target: Gal(b1-3)GalNAc(b1-4)Gal(b1-4)Glc
Summary of the method: as §1

[4] = biological target: Gal(b1-3)GalNAc(b1-4)[Neu5Ac(a2-3)]Gal(b1-4)Glc
Summary of the method: as §1

[5] = biological target: Gal(b1-3)GlcNAc
Summary of the method: as §1

[6] = biological target: Gal(b1-3)GlcNAc(a1-6)Gal(b1-4)GlcNAc
Summary of the method: as §1

[7] = biological target: Gal(b1-3)GlcNAc(b1-2)Man(a1-3)[Gal(b1-3)GlcNAc(b1-2)Man(a1-6)]Man(b1-4)GlcNAc(b1-4)GlcNAc
Summary of the method: as §1

[8] = biological target: Gal(b1-3)GlcNAc(b1-2)Man(a1-3)[Gal(b1-3)GlcNAc(b1-2)Man(a1-6)]Man(b1-4)GlcNAc(b1-4)[Fuc(a1-6)]GlcNAc
Summary of the method: as §1

[9] = biological target: Gal(b1-3)GlcNAc(b1-3)Gal(b1-3)GlcNAc
Summary of the method: as §1

[10] = biological target: Gal(b1-3)GlcNAc(b1-3)Gal(b1-4)Glc
Summary of the method: as §1

[11] = biological target: Gal(b1-3)GlcNAc(b1-3)Gal(b1-4)GlcNAc
Summary of the method: as §1

[12] = biological target: Gal(b1-3)GlcNAc(b1-3)Gal(b1-4)GlcNAc(b1-6)[Gal(b1-3)GlcNAc(b1-3)]Gal(b1-4)Glc
Summary of the method: as §1

[13] = biological target: Gal(b1-3)GlcNAc(b1-3)Gal(b1-4)[Fuc(a1-3)]GlcNAc(b1-6)[Gal(b1-3)GlcNAc(b1-3)]Gal(b1-4)Glc
Summary of the method: as §1

[14] = biological target: Gal(b1-3)GlcNAc(b1-3)GalNAc
Summary of the method: as §1

[15] = biological target: Gal(b1-3)GlcNAc(b1-6)Gal(b1-4)GlcNAc
Summary of the method: as §1

[16] = biological target: Gal(b1-3)[Fuc(a1-4)]GlcNAc
Summary of the method: as §1

[17] = biological target: Gal(b1-3)[Fuc(a1-4)]GlcNAc(b1-2)Man(a1-3)[Gal(b1-3)[Fuc(a1-4)]GlcNAc(b1-2)Man(a1-6)]Man(b1-4)GlcNAc(b1-4)GlcNAc
Summary of the method: as §1

[18] = biological target: Gal(b1-3)[Fuc(a1-4)]GlcNAc(b1-2)Man(a1-3)[Gal(b1-3)[Fuc(a1-4)]GlcNAc(b1-2)Man(a1-6)]Man(b1-4)GlcNAc(b1-4)[Fuc(a1-6)]GlcNAc
Summary of the method: as §1

[19] = biological target: Gal(b1-3)[Fuc(a1-4)]GlcNAc(b1-3)Gal(b1-3)[Fuc(a1-4)]GlcNAc
Summary of the method: as §1

[20] = biological target: Gal(b1-3)[Fuc(a1-4)]GlcNAc(b1-3)Gal(b1-4)GlcNAc
Summary of the method: as §1

[21] = biological target: Gal(b1-3)[Fuc(a1-4)]GlcNAc(b1-3)Gal(b1-4)[Fuc(a1-3)]GlcNAc
Summary of the method: as §1

[22] = biological target: Gal(b1-3)[GlcNAc(b1-6)]GalNAc
Summary of the method: as §1

[23] = biological target: Gal(b1-3)[Neu5Ac(a2-6)]GalNAc
Summary of the method: as §1

[24] = biological target: Gal(b1-3)[Neu5Ac(a2-6)]GlcNAc(b1-6)Gal(b1-4)Glc
Summary of the method: as §1

[25] = biological target: Gal(b1-3)[Neu5Ac(b2-6)]GalNAc
Summary of the method: as §1

[26] = biological target: Gal(b1-4)GalNAc(a1-3)[Fuc(a1-2)]Gal(b1-4)GlcNAc
Summary of the method: as §1

[27] = biological target: Gal(b1-4)GalNAc(b1-3)[Fuc(a1-2)]Gal(b1-4)GlcNAc
Summary of the method: as §1

[28] = biological target: Gal(b1-4)Glc
Summary of the method: as §1

[29] = biological target: Gal(b1-4)Glc6S
Summary of the method: as §1

[30] = biological target: Gal(b1-4)GlcNAc
Summary of the method: as §1

[31] = biological target: Gal(b1-4)GlcNAc(a1-6)Gal(b1-4)GlcNAc
Summary of the method: as §1

[32] = biological target: Gal(b1-4)GlcNAc(b1-2)Man(a1-3)Man(b1-4)GlcNAc(b1-4)GlcNAc
Summary of the method: as §1

[33] = biological target: Gal(b1-4)GlcNAc(b1-2)Man(a1-3)[Gal(b1-4)GlcNAc(b1-2)Man(a1-6)]Man(b1-4)GlcNAc(b1-4)GlcNAc
Summary of the method: as §1

[34] = biological target: Gal(b1-4)GlcNAc(b1-2)Man(a1-3)[Gal(b1-4)GlcNAc(b1-2)Man(a1-6)]Man(b1-4)GlcNAc(b1-4)[Fuc(a1-6)]GlcNAc
Summary of the method: as §1

[35] = biological target: Gal(b1-4)GlcNAc(b1-2)Man(a1-3)[GlcNAc(b1-2)Man(a1-6)]Man(b1-4)GlcNAc(b1-4)GlcNAc
Summary of the method: as §1

[36] = biological target: Gal(b1-4)GlcNAc(b1-2)Man(a1-3)[Man(a1-6)]Man(b1-4)GlcNAc(b1-4)GlcNAc
Summary of the method: as §1

[37] = biological target: Gal(b1-4)GlcNAc(b1-2)Man(a1-6)Man(b1-4)GlcNAc(b1-4)GlcNAc
Summary of the method: as §1

[38] = biological target: Gal(b1-4)GlcNAc(b1-2)Man(a1-6)[GlcNAc(b1-2)Man(a1-3)]Man(b1-4)GlcNAc(b1-4)GlcNAc
Summary of the method: as §1

[39] = biological target: Gal(b1-4)GlcNAc(b1-2)Man(a1-6)[Man(a1-3)]Man(b1-4)GlcNAc(b1-4)GlcNAc
Summary of the method: as §1

[40] = biological target: Gal(b1-4)GlcNAc(b1-2)[Gal(b1-4)GlcNAc(b1-4)]Man(a1-3)[Gal(b1-4)GlcNAc(b1-2)Man(a1-6)]Man(b1-4)GlcNAc(b1-4)GlcNAc
Summary of the method: as §1

[41] = biological target: Gal(b1-4)GlcNAc(b1-2)[Gal(b1-4)GlcNAc(b1-4)]Man(a1-3)[Gal(b1-4)GlcNAc(b1-2)[Gal(b1-4)GlcNAc(b1-6)]Man(a1-6)]Man(b1-4)GlcNAc(b1-4)GlcNAc
Summary of the method: as §1

[42] = biological target: Gal(b1-4)GlcNAc(b1-3)Gal(b1-3)GlcNAc
Summary of the method: as §1

[43] = biological target: Gal(b1-4)GlcNAc(b1-3)Gal(b1-4)Glc
Summary of the method: as §1

[44] = biological target: Gal(b1-4)GlcNAc(b1-3)Gal(b1-4)GlcNAc
Summary of the method: as §1

[45] = biological target: Gal(b1-4)GlcNAc(b1-3)Gal(b1-4)GlcNAc(b1-3)Gal(b1-4)GlcNAc
Summary of the method: as §1

B1: GH98CBM51-1 (Streptococcus pneumoniae) (protein)
chain: MTYLSDMDWSSATHGDIDKTKTVQKDAPFTTGNKGEHTKISLLTSDDKVKYFDKGIGTVADSPSVISYDISGQGFEKFETYIGIDQSANSSRSDHAVVDRIEIEIDGKVVYSSSVTNPEGFRYNTQAQFISVTIPQNAKKISLKSFAGEHTWGDEVVFADAKLIKTVST
With B1 the “glycan array binding signal (z-score)” value [1] was -0.163, the “glycan array binding signal (z-score)” value [2] was -0.191 and the “glycan array binding signal (z-score)” value [3] was -0.191. The “glycan array binding signal (z-score)” value [4] was -0.188, the “glycan array binding signal (z-score)” value [5] was -0.188 and the “glycan array binding signal (z-score)” value [6] was -0.19. The “glycan array binding signal (z-score)” value [7] was -0.188, the “glycan array binding signal (z-score)” value [8] was -0.188 and the “glycan array binding signal (z-score)” value [9] was -0.19. The “glycan array binding signal (z-score)” value [10] was -0.189, the “glycan array binding signal (z-score)” value [11] was -0.19 and the “glycan array binding signal (z-score)” value [12] was -0.185. For the same binder, the “glycan array binding signal (z-score)” value [13] was -0.191, the “glycan array binding signal (z-score)” value [14] was -0.187 and the “glycan array binding signal (z-score)” value [15] was -0.184. For the same binder, the “glycan array binding signal (z-score)” value [16] was -0.189, the “glycan array binding signal (z-score)” value [17] was -0.172 and the “glycan array binding signal (z-score)” value [18] was -0.187. The “glycan array binding signal (z-score)” value [19] was -0.19, the “glycan array binding signal (z-score)” value [20] was -0.187 and the “glycan array binding signal (z-score)” value [21] was -0.189. For the same binder, the “glycan array binding signal (z-score)” value [22] was -0.183, the “glycan array binding signal (z-score)” value [23] was -0.193 and the “glycan array binding signal (z-score)” value [24] was -0.188. The “glycan array binding signal (z-score)” value [25] was -0.189, the “glycan array binding signal (z-score)” value [26] was -0.188 and the “glycan array binding signal (z-score)” value [27] was -0.188. For the same binder, the “glycan array binding signal (z-score)” value [28] was -0.189, the “glycan array binding signal (z-score)” value [29] was -0.186 and the “glycan array binding signal (z-score)” value [30] was -0.188. For the same binder, the “glycan array binding signal (z-score)” value [31] was -0.186, the “glycan array binding signal (z-score)” value [32] was -0.193 and the “glycan array binding signal (z-score)” value [33] was -0.191. The “glycan array binding signal (z-score)” value [34] was -0.188, the “glycan array binding signal (z-score)” value [35] was -0.192 and the “glycan array binding signal (z-score)” value [36] was -0.189. For the same binder, the “glycan array binding signal (z-score)” value [37] was -0.191, the “glycan array binding signal (z-score)” value [38] was -0.19 and the “glycan array binding signal (z-score)” value [39] was -0.193. For the same binder, the “glycan array binding signal (z-score)” value [40] was -0.19, the “glycan array binding signal (z-score)” value [41] was -0.139 and the “glycan array binding signal (z-score)” value [42] was -0.19. For the same binder, the “glycan array binding signal (z-score)” value [43] was -0.19, the “glycan array binding signal (z-score)” value [44] was -0.196 and the “glycan array binding signal (z-score)” value [45] was -0.193.
